Test results taken from the supplement of paper PMC4166925.
± gives the standard deviation of the averaged measurements. In all, about 33,000 sequences were measured (“E-score (dimensionless, -0.5 to 0.5)”: median about -0.049, highest 2% from about 0.37 on). The list shows a part of the results.

These sequences were tested on T1, PmTbr T-box DNA-binding domain (GST fusion) (assay: PBM E-score of 8-mer (E-score (dimensionless, -0.5 to 0.5)); Tbr is Tbrain of the sea star Patiria miniata (Pm) or the sea urchin Strongylocentrotus purpuratus (Sp); higher = stronger binding preference; most listed sequences are background and not binding sites). Conditions: the construct has about 5 more residues each side.
T1 sequence: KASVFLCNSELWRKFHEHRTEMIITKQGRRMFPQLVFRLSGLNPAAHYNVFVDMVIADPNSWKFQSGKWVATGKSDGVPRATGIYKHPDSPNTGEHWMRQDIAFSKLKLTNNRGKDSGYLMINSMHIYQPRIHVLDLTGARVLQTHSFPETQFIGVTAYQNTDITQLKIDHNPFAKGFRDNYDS
How it was run: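 GST-fused Tbr T-box DNA-binding domains (the whole T-box plus about five flanking residues) were expressed in BL21 E. coli at 20 °C and purified by glutathione affinity chromatography. Universal Agilent oligonucleotide arrays were made double-stranded by primer extension, incubated with 200 nM protein in PBS (pH 7.5), then scanned and quantified. Every ungapped 8-mer was scored from probe intensities. The Universal PBM Analysis Suite gave each word an enrichment E-score, averaged over duplicate arrays.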

Row | Sequence | PBM E-score of 8-mer
1 | ATACAGAC | -0.023 ± 0.01
2 | ATAGAGAC | -0.196 ± 0.012
3 | GTAGATCA | -0.376 ± 0.0041
4 | GAGATAAC | 0.0303 ± 0.14
5 | CGAGTAGC | 0.0859 ± 0.012
6 | GTAAGTAA | 0.0742 ± 0.0078
7 | AAGCACGT | 0.0888 ± 0.0074
8 | CGGTCATA | 0.0237 ± 0.0059
9 | GCTACTAC | -0.0308 ± 0.027
10 | ATTTGGAC | -0.118 ± 0.068
11 | TAGCAAGA | 0.0109 ± 0.034
12 | GCAATCAA | -0.107 ± 0.0026
13 | ATTACCCC | -0.318 ± 0.01
14 | CCGCGACA | 0.278 ± 0.013
15 | CTAAATAA | -0.0265 ± 0.026
16 | TACAATGA | -0.215 ± 0.11
17 | GGTGAGGA | 0.364 ± 0.018
18 | AATCGCCC | -0.114 ± 0.085
19 | AGGATCAT | -0.151 ± 0.0099
20 | GCGGGGTA | -0.022 ± 0.01
21 | AGCCCGGG | -0.238 ± 0.038
22 | GTCCTGAA | -0.251 ± 0.018

Row | Sequence | PBM E-score of 8-mer
23 | AATCCAGA | -0.143 ± 0.064
24 | ATGCGGCG | -0.0929 ± 0.028
25 | CAGAAGAA | -0.246 ± 0.066
26 | AACTCGTG | 0.21 ± 0.0026
27 | AAACTGTT | 0.142 ± 0.095
28 | CTGGACAC | -0.0407 ± 0.0061
29 | AACATTCT | -0.0551 ± 0.017
30 | AGCAACTG | 0.118 ± 0.023
31 | TCGGACGA | -0.154 ± 0.058
32 | ACTAAAAT | 0.0252 ± 0.06
33 | CTATTCCA | 0.057 ± 0.068
34 | ATAGGGAA | -0.245 ± 0.013
35 | GGCACTCA | 0.127 ± 0.027
36 | ATGGCTCG | -0.0542 ± 0.052
37 | CAGCATGC | -0.237 ± 0.043
38 | CTCACTCA | 0.0988 ± 0.04
39 | TGCGCGCA | 0.116 ± 0.067
40 | ATCCTTCC | -0.185 ± 0.066
41 | CGACAAGA | 0.22 ± 0.0029
42 | CACCGCTG | 0.195 ± 0.031
43 | AGAACTAC | -0.0795 ± 0.065
44 | GAAGCCAA | -0.175 ± 0.01

Row | Sequence | PBM E-score of 8-mer
45 | ATTAATGC | -0.296 ± 0.063
46 | CGCAAAGA | 0.0523 ± 0.0075
47 | ATGGATCG | -0.226 ± 0.089
48 | GCTGCTCA | -0.108 ± 0.022
49 | CACAAGAG | 0.0986 ± 0.032
50 | GAATGCAC | -0.0779 ± 0.019
51 | ACCCGCTC | -0.177 ± 0.05
52 | TAAGATTA | -0.201 ± 0.01
53 | CTCGACGC | 0.19 ± 0.017
54 | CCATCTAC | -0.213 ± 0.087
55 | CCAGATGG | -0.00501 ± 0.054
56 | CGGAAATC | -0.0993 ± 0.026
57 | CTGTACAC | -0.0018 ± 0.025
58 | ACGTTCAC | 0.227 ± 0.06
59 | ACTATAGC | 0.115 ± 0.0036
60 | ACCACCGC | -0.0918 ± 0.0033
61 | CAATTACA | 0.01 ± 0.052
62 | CATAGAGA | -0.151 ± 0.0058
63 | CCGGACAG | -0.187 ± 0.068
64 | CCCGCCTC | 0.164 ± 0.031
65 | CCCGGAAG | -0.091 ± 0.041
66 | AATGGCAA | 0.116 ± 0.0097

Row | Sequence | PBM E-score of 8-mer
67 | AGACGCTA | 0.0542 ± 0.021
68 | ATATTAGC | 0.08588 ± 0.00027
69 | ATAGCGGC | 0.0791 ± 0.018
70 | GGTAGGAC | -0.0864 ± 0.056
71 | AGGTCACG | 0.19 ± 0.0059
72 | CCTAGCAC | 0.3709 ± 0.0033
73 | AATGACAC | 0.355 ± 0.0044
74 | GCGATCAC | 0.293 ± 0.0094
75 | AAAAATAT | -0.0496 ± 0.078
76 | GGCTCAAA | -0.162 ± 0.12
77 | CCAACCTC | -0.00881 ± 0.014
78 | ACTCGCCC | -0.192 ± 0.097
79 | CTTGGCGA | 0.0849 ± 0.04
80 | AAGAGCTA | -0.27 ± 0.011
81 | AGACCAAC | -0.00326 ± 0.023
82 | CAAGGATG | -0.288 ± 0.0063
83 | CTACATAA | -0.139 ± 0.01
84 | GTTGCAAC | 0.095 ± 0.039
85 | CATAGGCC | -0.156 ± 0.031
86 | CCTGGAGC | -0.11 ± 0.017
